Source: patent US6793917
No constants are given. Whether binding was seen depends on the method and setting. Some entries that bind do so weakly or less than the wild type.

Chains of the proteins cited; added tags and fusions are not shown. Lines headed by an entry give the natural chain unless they say otherwise; changes in a name come on top. Residues count along the entry.
UniProt P13500, residues 24-99: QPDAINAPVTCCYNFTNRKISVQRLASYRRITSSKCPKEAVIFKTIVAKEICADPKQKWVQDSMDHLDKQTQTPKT
UniProt Q92583: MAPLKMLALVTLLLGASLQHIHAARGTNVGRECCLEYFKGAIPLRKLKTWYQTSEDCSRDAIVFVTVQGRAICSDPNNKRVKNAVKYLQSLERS
UniProt P78556, residues 27-96: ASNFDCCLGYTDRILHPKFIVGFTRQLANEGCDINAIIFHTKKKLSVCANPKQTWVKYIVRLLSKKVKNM
UniProt P13501, residues 24-91: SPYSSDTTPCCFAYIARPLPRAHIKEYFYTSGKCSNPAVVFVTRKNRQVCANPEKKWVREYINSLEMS
UniProt P13236, residues 24-92: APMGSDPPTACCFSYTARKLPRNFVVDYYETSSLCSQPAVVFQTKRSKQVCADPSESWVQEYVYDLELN
UniProt P10147, residues 23-92: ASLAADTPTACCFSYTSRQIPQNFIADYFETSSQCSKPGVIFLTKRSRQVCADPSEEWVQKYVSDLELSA

How the values were obtained:
[1] = biological target: T1, CCR4 expressed on 293/EBNA-1 cells (human) (UniProt P51679); assay: competition with 1 nM TARC-SEAP on 293/EBNA-1 cells expressing CCR4
T1 sequence (looked up): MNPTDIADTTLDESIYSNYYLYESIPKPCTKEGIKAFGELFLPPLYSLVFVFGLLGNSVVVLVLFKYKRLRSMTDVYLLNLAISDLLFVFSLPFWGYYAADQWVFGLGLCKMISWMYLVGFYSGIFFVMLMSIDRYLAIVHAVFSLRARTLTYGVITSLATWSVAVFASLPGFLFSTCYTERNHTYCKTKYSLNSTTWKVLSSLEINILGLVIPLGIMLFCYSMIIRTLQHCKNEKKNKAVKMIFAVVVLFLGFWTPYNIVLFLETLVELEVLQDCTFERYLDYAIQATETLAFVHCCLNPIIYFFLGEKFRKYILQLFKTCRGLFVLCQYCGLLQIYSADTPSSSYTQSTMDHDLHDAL

[2] = biological target: T2, Duffy antigen/receptor for chemokine (DARC) on erythrocytes (UniProt Q16570); assay: displacement of 125I-labeled TARC from erythrocytes
T2 sequence (looked up): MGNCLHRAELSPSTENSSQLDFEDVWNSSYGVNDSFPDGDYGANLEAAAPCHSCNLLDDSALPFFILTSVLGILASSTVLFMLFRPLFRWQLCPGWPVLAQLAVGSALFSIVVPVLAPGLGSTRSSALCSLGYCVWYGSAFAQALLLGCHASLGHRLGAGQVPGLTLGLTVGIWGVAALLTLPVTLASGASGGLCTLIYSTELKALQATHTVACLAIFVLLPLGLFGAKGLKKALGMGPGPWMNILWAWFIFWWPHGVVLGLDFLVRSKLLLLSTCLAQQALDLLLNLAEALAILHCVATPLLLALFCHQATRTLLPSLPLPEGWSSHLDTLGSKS

[3] = biological target: T2, Duffy antigen/receptor for chemokine (DARC) on erythrocytes; assay: displacement of 0.66 nM 125I-labeled TARC from 10^8 erythrocytes

| Substance | binding [1] | other results |
| --- | --- | --- |
| MCP-1 (PeproTech) (from UniProt P13500 24-99) (ligand) | no binding (tested: 200 nM) | – |
| human TARC (Thymus and Activation-Regulated Chemokine), mature secreted form, expressed in and purified from insect cells (from UniProt Q92583 24-94) (ligand) | – | binding [2]: binds |
| LARC (from UniProt P78556 27-96) (ligand) | no binding (tested: 200 nM) | – |
| RANTES (PeproTech) (from UniProt P13501 24-91) (ligand) | – | binding [3]: binds |

Now from value to substance, other results behind:

| binding [1] | Substance | other results |
| --- | --- | --- |
| no binding (tested: 200 nM) | MIP-1β (PeproTech) (from UniProt P13236 24-92) (ligand) | – |
| no binding (tested: 200 nM) | MIP-1α (PeproTech) (from UniProt P10147 23-92) (ligand) | – |
